These results are taken from PubChem BioAssay AID360 (National Center for Advancing Translational Sciences (NCATS), 2006).

The campaign covered roughly 48,000 compounds. About 550 (1.1%) were called active. Roughly 4% stayed inconclusive and do not appear here. Cut-off read from the data, not from the text of the source: active = potency below about 15 µM; inconclusive = mostly about 16 µM to 33 µM; inactive = weaker than that. The list shows a part of the results.
Potency is the fitted concentration of half-maximal effect.

The test deals with Lysosomal acid glucosylceramidase (Homo sapiens) (UniProt P04062). Kind of test: Glucocerebrosidase.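 Note: the screen sought inhibitors.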 As to conditions: purified enzyme, resorufin glucoside fluorescence (screen aimed at inhibitors), 20 min; series mostly up to 77 µM. In outline: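 Wild-type enzyme at 0.2 nM final in 50mM citric acid/KH2PO4, 10mM sodium taurocholate, 0.01% tween-20, pH 5.9, with resorufin beta-D-glucopyranoside at 30 uM final. Compounds titrated, 20 min at RT, red fluorescence read; AC50 from titration.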
Chain of UniProt P04062 (P04062 whole entry, looked up): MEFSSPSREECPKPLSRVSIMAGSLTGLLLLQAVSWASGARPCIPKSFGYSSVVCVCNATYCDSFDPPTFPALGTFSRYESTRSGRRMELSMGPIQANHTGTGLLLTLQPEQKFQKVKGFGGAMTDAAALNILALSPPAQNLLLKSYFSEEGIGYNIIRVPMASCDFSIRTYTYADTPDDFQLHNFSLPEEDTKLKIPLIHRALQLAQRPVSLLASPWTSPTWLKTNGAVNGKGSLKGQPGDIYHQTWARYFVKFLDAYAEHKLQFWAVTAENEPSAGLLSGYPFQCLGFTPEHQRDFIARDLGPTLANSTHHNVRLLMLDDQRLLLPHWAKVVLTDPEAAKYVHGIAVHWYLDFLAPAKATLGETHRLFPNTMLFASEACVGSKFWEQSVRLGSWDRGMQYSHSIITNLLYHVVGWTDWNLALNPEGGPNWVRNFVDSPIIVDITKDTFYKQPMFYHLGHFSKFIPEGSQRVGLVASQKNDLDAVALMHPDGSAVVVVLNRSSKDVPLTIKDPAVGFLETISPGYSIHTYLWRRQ
Consider `c1ccc2cc3[nH]c(CN4CCOCC4)nc3cc2c1`, for which the Potency is inactive: > 76.9 µM.

Take `CCC1SC2=NCN(c3ccccc3)CN2C1=O` (stereo not drawn): the Potency was inactive: > 76.9 µM.

Regarding `Cc1cc(C(=O)OCC(=O)NCCc2ccccc2)c(C)o1`, the Potency was inactive: > 76.9 µM.

Turning to `CC(C)(C)C(=O)CN1C(=O)C2(OCCO2)c2ccccc21`, the Potency is inactive: > 76.9 µM.

With `Cc1cc(SCc2ccccc2)nc(=O)[nH]1`, the Potency was inactive: > 76.9 µM.

With `NC(=O)CSc1nnc(-c2ccncc2)n1CCc1ccccc1`, the Potency was inactive: > 76.9 µM.

In the case of `S=c1[nH]nc(Cc2ccccc2)n1Cc1ccco1`, the Potency is inactive: > 76.9 µM.

`O=S(=O)(NCc1ccccc1Br)c1cccs1`: the Potency was inactive: > 76.9 µM.

Turning to `CCOc1cc(NC(=O)c2ccco2)c(OCC)cc1NC(=O)CCc1ccc(OC)cc1`, the Potency is inactive: > 76.9 µM.

As for `c1ccc2c(c1)oc1c(NCCCn3ccnc3)ncnc12`, the Potency was inactive: > 76.9 µM.

Turning to `CCCS(=O)(=O)N1CCN(C(=O)CCC2CCCC2)CC1`, the Potency was inactive: > 76.9 µM.

Regarding `CCCC(C(=O)NC1CCCCC1)N(CC1CCCO1)C(=O)CNS(=O)(=O)c1ccc(F)cc1` (stereo not drawn), the Potency is inactive: > 76.9 µM.

For `Nc1nc(C2C(=O)CCCC2=O)cs1`, the Potency was inactive: > 76.9 µM.

Turning to `Cc1nn(-c2ccccc2)c(C)c1C(=O)OCC(=O)NCc1ccco1`, the Potency is inactive: > 76.9 µM.

As for `COc1ccc(C)cc1S(=O)(=O)N1CCN(c2cccc(C(F)(F)F)c2)CC1`, the Potency was inactive: > 76.9 µM.

`Cc1c(Cl)cccc1Nc1nc(N)nc(CSc2ncccn2)n1`: the Potency is inactive: > 76.9 µM.

For `Cc1cccc(NC(=O)CSc2nnc(-c3ccc(S(=O)(=O)N4CCOCC4)cc3)n2C)c1`, the Potency is inactive: > 76.9 µM.

For `COCCCN1C(=O)C(O)=C(C(C)=O)C1c1cccc(F)c1` (stereo not drawn), the Potency was inactive: > 76.9 µM.

For `O=C(Cn1cnc2c(nnn2Cc2ccccc2F)c1=O)OCc1ccccc1`, the Potency is inactive: > 76.9 µM.

As for `CCCn1nnnc1SCC(=O)N(C(C)C)C(C)C`, the Potency was inactive: > 76.9 µM.

For the compound `Cc1nc(Nc2ccc(F)cc2)[nH]c(=O)c1CCC(C)C`, the Potency result was “inactive”.

As to `CCN(CC)C(=O)COc1ccc2oc(C)c(C(=O)OC)c2c1`, the Potency was inactive: > 76.9 µM.

For `CCCCN1C(=O)c2ccccc2C1C(=O)NC1CCCC1` (stereo not drawn), the Potency was inactive: > 76.9 µM.

For the compound `Cc1cc(NC(=O)COC(=O)c2cccc(S(=O)(=O)N3CCOCC3)c2)no1`, the Potency was inactive: > 76.9 µM.

As to `O=C(O)c1ccccc1S(=O)(=O)NCC(O)COC1CCCCC1` (stereo not drawn), the Potency was inactive: > 76.9 µM.

For the compound `CCCCOc1ccc(C(=O)CCNC(C(=O)O)C(C)CC)cc1` (stereo not drawn), the Potency was inactive: > 76.9 µM.

For the compound `CC(=O)Nc1ccc(S(=O)(=O)NCCSc2ccccn2)cc1`, the Potency is inactive: > 76.9 µM.

Take `O=C(c1coc2ccccc2c1=O)N1CCN(c2cccc(C(F)(F)F)c2)CC1`: the Potency was inactive: > 76.9 µM.

Take `CCOC(=O)C1=C(c2ccccc2)OC(N)=C(C#N)C1C(C)C` (stereo not drawn): the Potency is inactive: > 76.9 µM.

With `CC(=O)n1nc2nc(C)cc(C)c2c1N`, the Potency was inactive: > 76.9 µM.

`COc1ccccc1N1CCN(c2nc3ccccc3n3nnnc23)CC1`: the Potency is inactive: > 76.9 µM.

Take `CNc1oc(Cc2cccc3ccccc23)nc1C#N`: the Potency is inactive: > 76.9 µM.

With `O=C(NCCN1C(=O)CSC1=O)C1CC(=O)N(c2ccccc2)C1` (stereo not drawn), the Potency is inactive: > 76.9 µM.

As to `Cc1nc2c(C(=O)NCc3ccc4c(c3)OCO4)c[nH]n2c(=O)c1Cc1ccccc1F`, the Potency is inactive: > 76.9 µM.

As to `O=C(Oc1nsnc1N1CCOCC1)N(c1ccccc1)c1ccccc1`, the Potency was inactive: > 76.9 µM.

Regarding `Cc1cccc2cc(CN(CCN3CCOCC3)C(=O)Nc3ccccc3F)c(=O)[nH]c12`, the Potency was inactive: > 76.9 µM.

As for `COCCn1c(=S)[nH]c2cc(C(=O)NCC3CCCO3)ccc2c1=O` (stereo not drawn), the Potency was inactive: > 76.9 µM.

Turning to `COc1ccc(CNC(=O)C(C)OC(=O)c2cccn2C)cc1` (stereo not drawn), the Potency is inactive: > 76.9 µM.

Turning to `Cc1ccccc1-n1c(SC(C)C(N)=O)nnc1-c1cccnc1` (stereo not drawn), the Potency was inactive: > 76.9 µM.

Take `O=C(OCc1ccc(F)cc1Cl)c1ccccn1`: the Potency is inactive: > 76.9 µM.

Regarding `Cn1c2c(c(=O)n(C)c1=O)C(NC(=O)c1ccco1)(C(F)(F)F)C(=O)N2` (stereo not drawn), the Potency is inactive: > 76.9 µM.

With `COc1ccccc1NC(=O)C1C2C=CC(O2)C1C(=O)O` (stereo not drawn), the Potency is inactive: > 76.9 µM.

In the case of `CCOC(=O)N1CCN(C(=O)c2ccc3c(=O)n(Cc4ccc(Cl)cc4)c(=S)[nH]c3c2)CC1`, the Potency is inactive: > 76.9 µM.

In the case of `COc1cccc2cc(C(=O)NC(C)C3CCCO3)c(=O)oc12` (stereo not drawn), the Potency is inactive: > 76.9 µM.

Take `O=C(NCc1cccs1)C1CC(=O)N(c2ccc(F)cc2)C1` (stereo not drawn): the Potency is inactive: > 76.9 µM.

Consider `O=C1CCCN1CN(C(=O)c1ccc2c(c1)OCO2)c1ccc(F)cc1`, for which the Potency was inactive: > 76.9 µM.

With `Cn1cc(SCC(=O)Nc2nc3ccccc3s2)c2ccccc21`, the Potency was inactive: > 76.9 µM.

For `O=C(CCn1c(=O)[nH]c2ccsc2c1=O)N1CCN(Cc2ccc3c(c2)OCO3)CC1`, the Potency was inactive: > 76.9 µM.

On to `O=C(COC(=O)C1(c2ccc(F)cc2)CCCC1)N1CCOCC1`, for which the Potency was inactive: > 76.9 µM.

`O=C(Cn1nc(C(=O)O)c2ccccc2c1=O)NCC1CCCO1` (stereo not drawn): the Potency is inactive: > 76.9 µM.

Take `CCn1c(SCC(=O)O)nnc1-c1ccccc1`: the Potency was inactive: > 76.9 µM.

Regarding `CN1CCN(C(=O)c2cc3c(ccc4ccccc43)oc2=O)CC1`, the Potency is inactive: > 76.9 µM.

Turning to `CCCOC(=O)C1=C(C)NC2=C(C(=O)CCC2)C1c1cccs1` (stereo not drawn), the Potency was inactive: > 76.9 µM.

Regarding `CCOC(=O)N1CCC(Nc2nc3ccccc3n3nnnc23)CC1`, the Potency is inactive: > 76.9 µM.

For `CC(C)CCn1c(SCCN2CCOCC2)nc2c1c(=O)[nH]c(=O)n2C`, the Potency was inactive: > 76.9 µM.

For `CCCCSCCCNC(=O)Nc1cccc(OC)c1`, the Potency was inactive: > 76.9 µM.

With `CCOC(=O)c1ccc(-n2c(N)c(C(=O)NCc3ccco3)sc2=S)cc1`, the Potency was inactive: > 76.9 µM.

As for `CCOC(=O)c1ccc2nc3c(cc2c1)CCS3`, the Potency result was “inactive”.

With `CC1=NCCN1S(=O)(=O)c1ccc(Br)c(C)c1`, the Potency was inactive: > 76.9 µM.

For the compound `CN(C)C(=O)N1CCCC(C(=O)NCc2ccc(F)cc2Cl)C1` (stereo not drawn), the Potency is inactive: > 76.9 µM.

In the case of `COc1ccc(C2C(C(=O)N3CCCCC3)c3ccccc3C(=O)N2C)cc1` (stereo not drawn), the Potency was inactive: > 76.9 µM.

For the compound `N#Cc1c(N)nc(SCC(=O)NC2CCCCC2)c(C#N)c1-c1ccc(Cl)cc1`, the Potency is inactive: > 76.9 µM.

In the case of `O=C(CS(=O)(=O)c1ccccc1)c1ccc2c(c1)OCCO2`, the Potency is inactive: > 76.9 µM.

As for `COC(=O)c1ccc(C(=O)Nc2ccc(N)cc2N)cc1`, the Potency is inactive: > 15.4 µM.

`COCC(=O)n1nc(NCc2ccc(OC)cc2)nc1NCc1ccc(OC)cc1`: the Potency is inactive: > 76.9 µM.

On to `Cc1ccc(C(=O)NC=C(Cl)Cl)cc1`, for which the Potency is inactive: > 76.9 µM.

In the case of `O=C(CSc1nc(-c2ccco2)cc(C(F)(F)F)n1)NCC1CCCO1` (stereo not drawn), the Potency was inactive: > 76.9 µM.

In the case of `Cn1c(=O)c2c(ncn2CC(=O)NC(C)(C)C)n(C)c1=O`, the Potency is inactive: > 76.9 µM.

For the compound `O=C(CN1C(=O)COc2ccc(Cl)cc21)N1CCc2ccccc21`, the Potency was inactive: > 76.9 µM.

With `CN(c1ccc(C(=O)O)cc1)S(=O)(=O)c1ccc(Cl)cc1`, the Potency was inactive: > 76.9 µM.

`O=C(O)CCS(=O)(=O)c1cccc2cccnc12`: the Potency is inactive: > 76.9 µM.

For `C/C(N)=C(/C#N)C(=O)COC(=O)CCSc1ccccc1`, the Potency was inactive: > 76.9 µM.

Take `CC(=O)C1=C(O)C(=O)N(CCN(C)C)C1c1ccc(Cl)cc1` (stereo not drawn): the Potency was inactive: > 76.9 µM.

With `CCOC(=O)N1CCN(C(=O)c2cnn3c(C)c(Cc4ccc(C)cc4)c(C)nc23)CC1`, the Potency is inactive: > 76.9 µM.

As for `CC1(C)Oc2ccc(NC(=O)C3COc4ccccc4O3)cc2O1` (stereo not drawn), the Potency is inactive: > 76.9 µM.

On to `Cc1ccc(NC(=O)C2C3CC4OC(=O)C2C4C3)cc1Cl` (stereo not drawn), for which the Potency was inactive: > 76.9 µM.

For the compound `CC12C(=O)N(Cc3ccccc3)C(=O)C1C1C=CC2C1` (stereo not drawn), the Potency was inactive: > 76.9 µM.

Consider `N#CC1=C(N)SC(N)=C(C#N)C1CCc1ccccc1`, for which the Potency was inactive: > 76.9 µM.

For `O=S1(=O)N=C(Nc2ccc(S(=O)(=O)N3CCCCC3)cc2)c2ccccc21`, the Potency was inactive: > 76.9 µM.

As to `CCOC(=O)c1cnc(-n2nc(C)cc2C)nc1NC(C)c1ccccc1` (stereo not drawn), the Potency is inactive: > 76.9 µM.

`N#CC1=C2C=CC=CN2CC1=O`: the Potency was inactive: > 76.9 µM.

For `NC(=O)CSc1nnc(-c2ccc(S(=O)(=O)N3CCOCC3)cc2)n1CC1CCCO1` (stereo not drawn), the Potency is inactive: > 76.9 µM.

Turning to `Cc1ccccc1OCC(=O)Nc1ccc(N2CCN(S(C)(=O)=O)CC2)cc1`, the Potency was inactive: > 76.9 µM.

Regarding `Cc1cc(=O)[nH]c2n[nH]c(-c3ccccc3)c12`, the Potency was inactive: > 76.9 µM.

As for `NC(=O)c1ccsc1NC(=O)COc1ccccc1`, the Potency was inactive: > 76.9 µM.

As to `CSc1ccccc1NC(=O)c1cnccn1`, the Potency was inactive: > 76.9 µM.

`COc1cccc(NC(=O)CSc2ccccn2)c1`: the Potency is inactive: > 76.9 µM.

Turning to `CSCCC(NC(=O)C1CCC(C)CC1)C(=O)NCc1ccco1` (stereo not drawn), the Potency was inactive: > 76.9 µM.

In the case of `CCOC(=O)N1CCN(c2c(NCCc3ccc(OCC)c(OCC)c3)c(=O)c2=O)CC1`, the Potency is inactive: > 76.9 µM.

For the compound `O=C(O)c1ccc2c(c1)C(=O)N(Cc1ccccc1)C2=O`, the Potency was inactive: > 76.9 µM.

Consider `COC(=O)CCc1c(C)c(C#N)c2nc3ccccc3n2c1N1CCCC1`, for which the Potency was inactive: > 76.9 µM.

Turning to `CCOC(=O)CSc1nnc(-c2ccc(S(=O)(=O)N3CCC(C)CC3)cc2)o1`, the Potency was inactive: > 76.9 µM.

Take `Cc1cc(C)cc(NC(=O)CCNS(=O)(=O)c2ccc3c(c2)oc(=O)n3C)c1`: the Potency was inactive: > 76.9 µM.
